Measurements taken from the supplement of paper PMC8728848.
The list shows a part of the results.

Key:
Test in all cases: glycan array binding signal (z-score within array); higher = stronger binding
Settings in all cases: glycan notation: IUPAC condensed, linker removed
[1] = target: Gal(b1-2)Gal
Method in brief: (§1)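 Columns mapping to the same glycan were averaged after glycan names were converted to IUPAC-condensed notation. The data come from 3228 arrays in the Consortium for Functional Glycomics database, limited to those with an available protein sequence. Binding is reported as a within-array Z-score averaged across arrays of one protein sequence and across linkers.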

[2] = target: Gal(b1-3)Gal
Method in brief: as §1

[3] = target: Gal(b1-3)Gal(b1-4)GlcNAc
Method in brief: as §1

[4] = target: Gal(b1-3)GalNAc
Method in brief: as §1

[5] = target: Gal(b1-3)GalNAc(b1-3)Gal(a1-4)Gal(b1-4)Glc
Method in brief: as §1

[6] = target: Gal(b1-3)GalNAc(b1-4)Gal(b1-4)Glc
Method in brief: as §1

[7] = target: Gal(b1-3)GalNAc(b1-4)[Neu5Ac(a2-3)]Gal(b1-4)Glc
Method in brief: as §1

[8] = target: Gal(b1-3)GlcNAc
Method in brief: as §1

[9] = target: Gal(b1-3)GlcNAc(b1-2)Man(a1-3)[Gal(b1-3)GlcNAc(b1-2)Man(a1-6)]Man(b1-4)GlcNAc(b1-4)GlcNAc
Method in brief: as §1

[10] = target: Gal(b1-3)GlcNAc(b1-3)Gal(b1-3)GlcNAc
Method in brief: as §1

[11] = target: Gal(b1-3)GlcNAc(b1-3)Gal(b1-4)Glc
Method in brief: as §1

[12] = target: Gal(b1-3)GlcNAc(b1-3)Gal(b1-4)GlcNAc
Method in brief: as §1

[13] = target: Gal(b1-3)[Fuc(a1-4)]GlcNAc
Method in brief: as §1

[14] = target: Gal(b1-3)[Fuc(a1-4)]GlcNAc(b1-3)Gal(b1-3)[Fuc(a1-4)]GlcNAc
Method in brief: as §1

[15] = target: Gal(b1-3)[Fuc(a1-4)]GlcNAc(b1-3)Gal(b1-4)GlcNAc
Method in brief: as §1

[16] = target: Gal(b1-3)[Fuc(a1-4)]GlcNAc(b1-3)Gal(b1-4)[Fuc(a1-3)]GlcNAc
Method in brief: as §1

[17] = target: Gal(b1-3)[GlcNAc(b1-6)]GalNAc
Method in brief: as §1

[18] = target: Gal(b1-3)[Neu5Ac(a2-6)]GalNAc
Method in brief: as §1

[19] = target: Gal(b1-3)[Neu5Ac(a2-6)]GlcNAc(b1-6)Gal(b1-4)Glc
Method in brief: as §1

[20] = target: Gal(b1-3)[Neu5Ac(b2-6)]GalNAc
Method in brief: as §1

[21] = target: Gal(b1-4)GalNAc(a1-3)[Fuc(a1-2)]Gal(b1-4)GlcNAc
Method in brief: as §1

[22] = target: Gal(b1-4)GalNAc(b1-3)[Fuc(a1-2)]Gal(b1-4)GlcNAc
Method in brief: as §1

[23] = target: Gal(b1-4)Glc
Method in brief: as §1

[24] = target: Gal(b1-4)Glc6S
Method in brief: as §1

[25] = target: Gal(b1-4)GlcNAc
Method in brief: as §1

[26] = target: Gal(b1-4)GlcNAc(a1-6)Gal(b1-4)GlcNAc
Method in brief: as §1

[27] = target: Gal(b1-4)GlcNAc(b1-2)Man(a1-3)[Gal(b1-4)GlcNAc(b1-2)Man(a1-6)]Man(b1-4)GlcNAc(b1-4)GlcNAc
Method in brief: as §1

[28] = target: Gal(b1-4)GlcNAc(b1-3)Gal(b1-3)GlcNAc
Method in brief: as §1

[29] = target: Gal(b1-4)GlcNAc(b1-3)Gal(b1-4)Glc
Method in brief: as §1

[30] = target: Gal(b1-4)GlcNAc(b1-3)Gal(b1-4)GlcNAc
Method in brief: as §1

[31] = target: Gal(b1-4)GlcNAc(b1-3)Gal(b1-4)GlcNAc(b1-3)Gal(b1-4)GlcNAc
Method in brief: as §1

[32] = target: Gal(b1-4)GlcNAc(b1-3)Gal(b1-4)[Fuc(a1-3)]GlcNAc(b1-3)Gal(b1-4)[Fuc(a1-3)]GlcNAc
Method in brief: as §1

[33] = target: Gal(b1-4)GlcNAc(b1-3)GalNAc
Method in brief: as §1

[34] = target: Gal(b1-4)GlcNAc(b1-3)[Gal(b1-4)GlcNAc(b1-6)]Gal(b1-4)GlcNAc
Method in brief: as §1

[35] = target: Gal(b1-4)GlcNAc(b1-3)[GlcNAc(b1-6)]Gal(b1-4)GlcNAc
Method in brief: as §1

[36] = target: Gal(b1-4)GlcNAc(b1-6)Gal(b1-4)GlcNAc
Method in brief: as §1

[37] = target: Gal(b1-4)GlcNAc(b1-6)Gal(b1-4)GlcNAc(b1-6)GalNAc
Method in brief: as §1

[38] = target: Gal(b1-4)GlcNAc(b1-6)GalNAc
Method in brief: as §1

[39] = target: Gal(b1-4)GlcNAc(b1-6)[Gal(b1-3)]GalNAc
Method in brief: as §1

[40] = target: Gal3S(b1-3)GalNAc
Method in brief: as §1

[41] = target: Gal3S(b1-3)GlcNAc
Method in brief: as §1

[42] = target: Gal3S(b1-3)[Fuc(a1-4)]GlcNAc
Method in brief: as §1

[43] = target: Gal3S(b1-4)Glc
Method in brief: as §1

[44] = target: Gal3S(b1-4)Glc6S
Method in brief: as §1

B1: Regenerating Gene I (Homo sapiens), P05451 (protein)
chain: MAQTSSYFMLISCLMFLSQSQGQEAQTELPQARISCPEGTNAYRSYCYYFNEDRETWVDADLYCQNMNSGNLVSVLTQAEGAFVASLIKESGTDDFNVWIGLHDPKKNRRWHWSSGSLVSYKSWGIGAPSSVNPGYCVSLTSSTGFQKWKDVPCEDKFSFVCKFKN
- glycan array binding signal (z-score) [1]: 0.166
- glycan array binding signal (z-score) [2]: -0.516
- glycan array binding signal (z-score) [3]: -0.433
- glycan array binding signal (z-score) [4]: -0.1
- glycan array binding signal (z-score) [5]: -0.12
- glycan array binding signal (z-score) [6]: -0.379
- glycan array binding signal (z-score) [7]: -0.468
- glycan array binding signal (z-score) [8]: 0.467
- glycan array binding signal (z-score) [9]: -0.203
- glycan array binding signal (z-score) [10]: -0.535
- glycan array binding signal (z-score) [11]: -0.316
- glycan array binding signal (z-score) [12]: -0.537
- glycan array binding signal (z-score) [13]: -0.509
- glycan array binding signal (z-score) [14]: -0.396
- glycan array binding signal (z-score) [15]: -0.543
- glycan array binding signal (z-score) [16]: 1.41
- glycan array binding signal (z-score) [17]: -0.443
- glycan array binding signal (z-score) [18]: 0.064
- glycan array binding signal (z-score) [19]: -0.384
- glycan array binding signal (z-score) [20]: -0.082
- glycan array binding signal (z-score) [21]: -0.474
- glycan array binding signal (z-score) [22]: 0.083
- glycan array binding signal (z-score) [23]: -0.165
- glycan array binding signal (z-score) [24]: 0.447
- glycan array binding signal (z-score) [25]: -0.257
- glycan array binding signal (z-score) [26]: 0.071
- glycan array binding signal (z-score) [27]: -0.323
- glycan array binding signal (z-score) [28]: -0.384
- glycan array binding signal (z-score) [29]: -0.273
- glycan array binding signal (z-score) [30]: -0.273
- glycan array binding signal (z-score) [31]: -0.53
- glycan array binding signal (z-score) [32]: -0.384
- glycan array binding signal (z-score) [33]: 0.002
- glycan array binding signal (z-score) [34]: -0.248
- glycan array binding signal (z-score) [35]: -0.45
- glycan array binding signal (z-score) [36]: -0.417
- glycan array binding signal (z-score) [37]: -0.332
- glycan array binding signal (z-score) [38]: -0.261
- glycan array binding signal (z-score) [39]: -0.229
- glycan array binding signal (z-score) [40]: -0.486
- glycan array binding signal (z-score) [41]: -0.149
- glycan array binding signal (z-score) [42]: -0.224
- glycan array binding signal (z-score) [43]: 0.272
- glycan array binding signal (z-score) [44]: 0.631
